PubChem BioAssay AID493208 (National Center for Advancing Translational Sciences (NCATS), 2011)
Hit rate of the full screen: of about 44,000 compounds, about 340 (0.77%) were called active. About 5% were inconclusive and are not listed. The call rests on the fitted dose curve; in most records, active means well fitted inhibition curve with a large enough effect; inconclusive means small, poorly fitted or top-dose-only effect; inactive means flat fitted curve, though single readings scatter. The list shows a part of the results.

Test: Acumen qHTS Assay for Inhibitors of the mTORC1 Signaling Pathway in MEF (Tsc2-/-, p53-/-) Cells: Sytravon;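 further: plate controls were DMSO for no effect and rapamycin for full effect; nearly all actives have a fitted effect of over 50% in size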
Conditions: phospho-rpS6 immunofluorescence/PI, 24 h; series mostly up to 38.3 µM; activity change, negative = inhibition: at the top concentration
Method in brief: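 Tsc2-/-, p53-/- MEFs (empty-vector stable line) in DMEM + 10% FBS were treated with compounds 24 h at 37 degree Celsius, fixed, and immunostained for phospho-rpS6 (Alexa-488) with propidium iodide counterstain. Laser-scanning cytometry gave % positive cells, normalized against 7.5 nM rapamycin and DMSO.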

Activity change, negative = inhibition, inactive:
CCN(CC)S(=O)(=O)c1ccc2c(c1)N(CC(=O)NCCCN1CCN(c3ccccc3F)CC1)C(=O)CO2 2.61%, CCc1ccc(NC(=O)c2cc(C(C)=O)n3ccccc23)cc1 -1.49%, CC(C)c1ccc(C2N3CC4(C)CN2CC(c2ccccc2)(C3)C4=O)cc1 (stereo not given) -9.08%, CCCc1nn2c(=O)cc(COC(=O)c3cccc(NC(=O)COc4ccc(F)cc4)c3)nc2s1 0%, CCc1nn(-c2ccccc2)c2nc(-c3ccccc3OC)c3cc(OC)c(OC)cc3c12 7.73%, CCOC(=O)c1scc(-c2ccccc2)c1S(=O)(=O)Nc1ccccc1F -14.4%, Clc1cccc(N2CCN(c3ncnc4c3nc3n4CCCCC3)CC2)c1 -21.1%, O=C(O)c1cc(NC2(c3ccccc3)C(=O)c3ccccc3C2=O)ccc1Cl 3.33%, Cc1cc(C)c(Cn2c3ccccc3c3cnn(CC(=O)NC4CCC(C)CC4)c(=O)c32)c(C)c1 (stereo not given) -2.28%, Cc1nc(-c2ccc(Cl)cc2)sc1CCNC(=O)C(=O)Nc1ccc(F)cc1F -1.57%, O=C(Cn1c(=O)oc2cc(S(=O)(=O)N3CCCCC3)ccc21)Nc1cccc(Cl)c1 -0.0398%, Cc1ccccc1NC(=O)c1ccc(F)c(S(=O)(=O)N(C)Cc2ccccc2)c1 6.23%, Cc1oc2c(c(C)cc3oc(=O)c(CC(=O)NCCc4ccccc4F)c(C)c32)c1C 1.89%, CCOC(=O)C1CCN(c2ncnc3c2c(-c2ccccc2)cn3-c2cccc(C)c2)CC1 10.1%, CCc1ccc(NC(=O)CN2CCN(Cc3ccccc3)S2(=O)=O)cc1 5.71%, Cc1ccc(Cn2c(C(=O)O)c(CNCc3ccccc3Cl)c3ccc(C)cc32)cc1 -3.37%, Cc1ccccc1-n1c(SCC(=O)Nc2ccc(Cl)cc2F)nnc1-c1cc2occc2n1C 2.86%, Cc1cccc(NC(=O)CCCn2c(C)c3cnn(-c4ccccc4)c(=O)c3c2C)c1C 1.02%, CCOc1ccccc1CNS(=O)(=O)c1ccc2c(c1)CCCN2C(C)=O -25.4%, O=C(Cn1ccn(-c2ccc(F)c(F)c2)c(=O)c1=O)Nc1ccccc1F -1.26%, CCc1ccc(CNC(=O)c2sc3ncccc3c2-n2c(C)ccc2C)cc1 -19%, Cc1ccc(-c2nc3cc(C(C)C)ccc3o2)cc1NC(=O)c1cc2ccccc2o1 -1.17%, Cc1ccc(CN2CCc3nc(N4CCN(c5ncccn5)CC4)ncc3C2)cc1 4.14%, Cc1ccc(C)n1-c1nnc(N2CCCC(C(=O)NCc3ccc(Cl)cc3)C2)s1 (stereo not given) -9.9%, Cc1ccc(OCC(=O)Nc2ccc(S(=O)(=O)Nc3cc(C)nc(C)n3)cc2)c(Br)c1 14.5%, O=C(CCSc1nc(-c2ccco2)cc(C(F)(F)F)n1)Nc1cccc(O)c1 -18%, O=C(Nc1ccc2oc(-c3cccnc3)nc2c1)c1cccc(Br)c1 -0.207%, COc1cccc(NC(=O)CSc2nc3c(oc4ccccc43)c(=O)n2Cc2ccco2)c1 -2.86%, CC(C)CCNC(=O)CCCN1C(=O)c2ccccc2Sc2ncccc21 -1.49%, COc1cc(-c2noc(CN3CCN(c4ccccc4)CC3)n2)cc(OC)c1OC -10.1%, Cc1cccc(NC(=O)C(=O)NCC(c2ccc3c(c2)OCO3)N2CCOCC2)c1C (stereo not given) -7.17%, CCOC(=O)c1ccccc1NC(=O)N1CCc2c(sc(C)c2CC)C1c1ccccc1 (stereo not given) 22.4%, COc1ccccc1-c1nc2c(c(SCc3cccc(Cl)c3)n1)Cc1c(CO)cnc(C)c1O2 0.236%, COc1cc(OC)cc(C(=O)Oc2c(Sc3ccccc3)c(C)nn2C(C)(C)C)c1 1.47%, Cc1cn2c(=O)cc(COC(=O)c3cccc(NC(=O)COc4ccccc4Cl)c3)nc2s1 3.6%, CCc1ccc(C2c3c(-c4ccccc4O)n[nH]c3C(=O)N2Cc2ccncc2)cc1 (stereo not given) -27.3%, CCOc1ccc(-n2c(Cc3ccccc3)nnc2SCc2nc(-c3ccccc3OC)no2)cc1 -4.26%, CN1CCN(C(CNC(=O)c2cccc(F)c2)c2ccc3c(c2)OCO3)CC1 (stereo not given) 0.315%, Cc1cc(C)c(NC(=O)C2CCN(c3nc4ccccc4[nH]3)CC2)c(C)c1 4.46%, O=C(Nc1ccc2oc(-c3ccccc3F)nc2c1)c1ccccc1Cl -5.64%, Cc1cccc(CSc2ncc(CO)n2Cc2ccc(F)cc2)c1 -27.4%, Cc1ccc2c(c1)-c1nc(-c3ccc(Cl)cc3)cc(-c3coc4ccccc4c3=O)c1CO2 -8.55%, COc1ccc(NC(=O)CSc2ncc3c(n2)-c2cc(Cl)ccc2N(Cc2ccccc2F)S3(=O)=O)cc1 -16%, CCCSc1ncc(Cl)c(C(=O)Nc2ccc(S(=O)(=O)Nc3ncccn3)cc2)n1 2.94%, Cc1cc(C)c2c(=O)cc(C(=O)Nc3sc4c(c3C(=O)NCc3ccccc3)CCCC4)oc2c1 -2.78%, Fc1ccc(-n2ncc3c(NCCCN4CCOCC4)ncnc32)cc1 11.1%, COc1cc(-c2nnc(SCCOc3ccc(Cl)cc3C)o2)cc(OC)c1OC 2.32%, CCOC(=O)c1c(NC(=O)CSc2cn(CCNC(=O)c3ccccc3F)c3ccccc23)sc2c1CCC2 -11.3%, COC(=O)c1cc(S(=O)(=O)NCC2CCN(Cc3ccc(F)cc3)CC2)cn1C -1.79%, O=C(Nc1ccc2nc(SCC(=O)N3CCCc4ccccc43)sc2c1)c1cccc(F)c1 -5.29%, COc1cccc(CNC(=O)c2ccc(CSc3nc4ccncc4n3Cc3cccc(C)c3)cc2)c1 4.12%, Cc1ccc2c(c1)N(CCC(=O)NCc1ccc(F)cc1)C(=O)CO2 -3.51%, CCOCCc1nn2c(=O)cc(COC(=O)CNC(=O)c3ccc(C(C)(C)C)cc3)nc2s1 0.435%, Cc1ccc(Cl)cc1N1CCN(S(=O)(=O)c2ccc3[nH]c4c(c3c2)CCCCC4)CC1 2.81%, COc1cc(NC(=O)CCc2c(C)nn(-c3ccc4nncn4n3)c2C)cc(OC)c1OC -2.28%, Cc1c(CC(=O)NCCc2ccccc2F)c(=O)oc2c(C)c3occ(C(C)(C)C)c3cc12 -2.43%, COc1ccc(NC(=O)CSc2cn(CC(=O)N3CCOCC3)c3ccccc23)cc1OC -12.8%, COc1cccc(N2CCN(C(=O)c3ccc4c(=O)n(CCc5ccccc5)c(=O)[nH]c4c3)CC2)c1 -17.3%, CC(C)COC(=O)/C(C#N)=C\c1ccc(-c2ccccc2Cl)o1 -1.12%, CCc1ccc(S(=O)(=O)c2nnn3c2nc(N2CCC(C)CC2)c2cc(Cl)ccc23)cc1 -0.0055%, COc1ccc(-c2cc(C(=O)NCc3cc(OC)c(OC)c(OC)c3)[nH]n2)cc1 -4.52%, Cc1ccc(Cl)c2c1N[C@@H](c1ccc(C(=O)O)cc1)[C@H]1CC=C[C@@H]21 12.9%, Cc1ccc(C)c(NC(=O)CCN2C(=O)c3ccccc3Sc3ncccc32)c1 -0.914%, O=C(Nc1ccccc1)C(Cc1ccccc1)N1Cc2ccccc2C1=O (stereo not given) -3.11%, CCOc1ccc(-c2nc(CSCC(=O)N3CCN(c4cccc(C(F)(F)F)c4)CC3)c(C)o2)cc1 -2.73%, COc1ccc(C2=NS(=O)(=O)N(C)C(C(=O)Nc3cc(C)ccc3O)=C2)cc1OC -0.628%, Cc1nc(N2C(=O)c3oc4ccccc4c(=O)c3C2c2ccccc2F)sc1C (stereo not given) 6.42%, COc1cccc(N2CCN(S(=O)(=O)c3cc(Br)cc4c3N(C(=O)C3CC3)CC4)CC2)c1 2.32%, Cc1cccc(N2C(=O)CSC23C(=O)N(Cc2cccc(F)c2)c2ccccc23)c1 (stereo not given) -12.8%, CN1CCN(C(CNC(=O)C(=O)Nc2ccccc2)c2ccc3c(c2)OCO3)CC1 (stereo not given) -0.143%, Cc1ccc(C)c(CSc2nc3ncccc3[nH]2)c1 -1.32%, Cc1cccc(-c2noc(CN(C(=O)COc3ccc(C(C)C)cc3)C(C)C)n2)c1 -17.8%, CCOC(=O)c1c(C)n(-c2ccccc2)c2ccc(OC(=O)c3ccccc3)cc12 -11.4%, COc1cccc(CNC(=O)CSc2nc(=O)[nH]c3c2CCCC3)c1 -5.03%, CCc1ccc(NC(=O)Cn2c(=O)c(-c3ccccc3NC(C)=O)nc3ccccc32)cc1 -11.9%, Oc1c(C(c2ccc(Cl)cc2Cl)N2CCOCC2)sc2nc(-c3ccco3)nn12 (stereo not given) -6.8%, CCOc1ccc(S(=O)(=O)N(CC(=O)NCCSCc2ccc(C)cc2)c2ccccc2)cc1 -21.6%, CCn1ccc2cc(S(=O)(=O)N3CCCN(C(=O)Nc4ccccc4C(F)(F)F)CC3)ccc21 2.87%, Cc1ccc2c(=O)cc(C(=O)Nc3nnc(CC(C)C)s3)oc2c1C -4.44%, O=C(CC1N=C2c3ccccc3N=C(SCC(=O)Nc3cccc(Cl)c3)N2C1=O)NCc1cccs1 (stereo not given) -1.75%, Cc1cccc(Cn2c(=O)n(CCC(=O)NCc3ccc4c(c3)OCO4)c(=O)c3sccc32)c1 -5.84%, CC1CCN(S(=O)(=O)c2ccc(N3CCCCS3(=O)=O)cc2)CC1 2.09%, COc1ccc(CCNC(=O)Cn2cc(S(=O)(=O)Cc3ccccc3F)c3ccccc32)cc1OC 0.536%, Cc1ccc(C)n1-c1nnc(N2CCC(C(=O)Nc3ccccc3Br)CC2)s1 -9.85%, COc1ccc2c(c1)Cc1sc(NC(=O)c3ccccc3Br)nc1-2 2.62%, CCc1ccc(NC(=O)c2ccc3c(c2)N(Cc2ccc(C)cc2)CCS3)cc1 -5.16%, CCn1c(SCC(=O)Nc2ccc(C)cc2Br)nnc1-c1nonc1NC(C)=O -0.942%, CCCN1CCc2nc(N3CCN(CC)CC3)ncc2C1 4.17%, COc1ccccc1CNc1cc(-c2ccccc2)nc2nncn12 -5.29%, CCOc1cccc(C(=O)Nc2c(C(=O)c3ccc(OC)cc3)oc3ccccc23)c1 -7.05%, COc1ccc(N2Cc3cccc(C(=O)Nc4ccc(C(C)C)cc4)c3C2=O)cc1 2.38%, CCCCOC(=O)c1ccc(NC(=O)c2cc(-c3ccccc3)on2)cc1 1.38%, CS(=O)(=O)NCC(c1ccco1)N1CCN(c2ccccc2)CC1 (stereo not given) -0.373%, O=C(CN(c1ccc(Cl)c(C(F)(F)F)c1)S(=O)(=O)c1ccccc1)N1CCc2ccccc2C1 13.2%, Cc1ccc(NC(=O)c2sc(-n3nc(C)c(CCC(C)C)c3C)nc2C)cc1C -9.51%
